In all, about 33,000 sequences were measured (“E-score (-0.5 to 0.5)”: median about -0.011, highest 2% from about 0.28 on). The list shows a part of the results.
What follows are sequences tested against T1, Gcr1 (UniProt P07261) (assay: PBM E-score (8-mer binding enrichment) (E-score (-0.5 to 0.5)); higher = stronger / more preferred TF binding; most listed sequences are background and not binding sites). Conditions: protein concentration: 100 nM; construct: GST-full length.
T1 sequence: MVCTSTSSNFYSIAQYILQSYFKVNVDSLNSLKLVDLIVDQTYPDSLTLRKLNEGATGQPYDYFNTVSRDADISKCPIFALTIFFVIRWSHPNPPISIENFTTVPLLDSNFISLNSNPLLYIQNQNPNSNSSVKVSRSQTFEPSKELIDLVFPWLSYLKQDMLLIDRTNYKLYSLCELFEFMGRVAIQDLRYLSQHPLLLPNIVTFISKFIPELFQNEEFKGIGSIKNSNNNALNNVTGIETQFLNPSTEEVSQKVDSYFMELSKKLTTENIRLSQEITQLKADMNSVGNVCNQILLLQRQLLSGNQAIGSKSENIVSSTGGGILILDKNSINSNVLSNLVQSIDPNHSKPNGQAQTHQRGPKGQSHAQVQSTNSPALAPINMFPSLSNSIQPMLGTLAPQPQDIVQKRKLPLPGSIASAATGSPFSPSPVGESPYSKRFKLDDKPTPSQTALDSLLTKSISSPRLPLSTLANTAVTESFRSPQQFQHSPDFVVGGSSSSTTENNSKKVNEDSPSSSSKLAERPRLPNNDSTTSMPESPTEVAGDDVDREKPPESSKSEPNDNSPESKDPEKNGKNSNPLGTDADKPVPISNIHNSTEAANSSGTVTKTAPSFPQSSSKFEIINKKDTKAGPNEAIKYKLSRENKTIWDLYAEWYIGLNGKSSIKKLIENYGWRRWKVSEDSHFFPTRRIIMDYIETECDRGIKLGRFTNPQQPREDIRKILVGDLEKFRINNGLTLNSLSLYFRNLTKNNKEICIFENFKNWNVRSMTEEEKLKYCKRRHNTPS
Experimental: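 Universal 'all 10-mer' protein binding microarrays (Agilent AMADID 015681) probed with GST-tagged S. cerevisiae TFs (full-length or DBD) made by in vitro transcription/translation (PURExpress), about 100-200 nM. Bound TF was detected with fluorescent anti-GST. Each ungapped 8-mer (which stands for itself and its reverse complement) is scored by the PBM enrichment score (E-score), a modified Wilcoxon-Mann-Whitney statistic from -0.5 to +0.5, computed with the Universal PBM Analysis Suite. Scale: above 0.35 generally sequence-specific binding.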

In order of rising “PBM E-score” value:
1. GAGTGTGC  -0.3
2. ACAGTCTG  -0.286
3. AGCCGGCT  -0.28
4. CGCAGTAA  -0.28
5. CAGCTTGC  -0.267
6. GGCCACGA  -0.24
7. CACTGTTC  -0.226
8. CTGAACTC  -0.22
9. ACGGGCGG  -0.21
10. TCGACTCA  -0.207
11. TAGCCTAA  -0.202
12. CTTAGCCC  -0.201
13. CGTAAGAG  -0.199
14. GCAGTCTA  -0.188
15. ACGGTTTG  -0.185
16. GAGAGCGC  -0.182
17. CACATGCG  -0.176
18. ACCCCTTG  -0.169
19. CAGGGACG  -0.167
20. CAGAGCCA  -0.164
21. AGGCTTTA  -0.162
22. CAATATGG  -0.161
23. ATGGGCTG  -0.157
24. GCGAACGC  -0.155
25. CATTCTTC  -0.149
26. AGCTCGCA  -0.148
27. ATGACTGC  -0.144
28. CGGGCAAA  -0.142
29. AGTTAGTA  -0.141
30. CTAGGCAC  -0.135
31. CTCTTCGA  -0.135
32. CCGCGAGG  -0.13
33. AGAGCCAA  -0.13
34. CTAAGACC  -0.125
35. ATGTTACA  -0.12
36. AAGCTTTC  -0.115
37. TCGGCCAA  -0.112
38. TACGATAA  -0.111
39. ACCCGTGG  -0.109
40. TCAGCAAA  -0.107
41. AAAAGTAC  -0.105
42. CGAACCGA  -0.0923
43. GCTGGACA  -0.0923
44. ATCGATAA  -0.0916
45. CGTTCGTA  -0.0903
46. AGCATCGG  -0.0896
47. TCGCCCGA  -0.0882
48. GAGTAAAA  -0.0867
49. GTAGGGAC  -0.0856
50. GTACCTCA  -0.0838
51. ACAGGCCC  -0.0807
52. TCCTCCAA  -0.0784
53. ATCCGTCA  -0.0781
54. ATTTCCTA  -0.0777
55. AATCACCA  -0.0774
56. AGATTATG  -0.0761
57. TCGTGCCA  -0.0736
58. GGCAGGAA  -0.0713
59. GTACGGTA  -0.0689
60. ACTGCTAC  -0.0644
61. AACTTGCA  -0.0638
62. AGCGTGGG  -0.0598
63. GCGTGCAA  -0.0573
64. ACGTACCG  -0.0561
65. ACTAGTTC  -0.0543
66. CGCTGAAA  -0.054
67. GTGAGCCA  -0.0503
68. CAGCCCAA  -0.047
69. TACATAAA  -0.0462
70. GGGCGAGA  -0.0433
71. GCCCACGA  -0.0428
72. GAATGATC  -0.0425
73. ACATACCG  -0.0373
74. CATATGAG  -0.0334
75. AACCTACG  -0.0314
76. GCCTGATA  -0.0293
77. AGATGTCC  -0.0276
78. CGCGACCG  -0.0228
79. CCGTCAAA  -0.0216
80. AATTAGCC  -0.0206
81. CAAGCCGG  -0.0195
82. GATTTGAA  -0.0188
83. ACACGGAA  -0.017
84. ATGACTTG  -0.0158
85. CTCGCGAA  -0.0124
86. TAAGTTCA  -0.00916
87. AAGCTGGG  -0.00909
88. GTAACGAC  -0.00515
89. CACTAGCA  0.00014
90. AATACCCG  0.00049
91. AGTGCCAC  0.00244
92. CCCTTCCC  0.0106
93. CCGTGAAA  0.012
94. CCCACTGC  0.0146
95. CGGATAGC  0.0158
96. CTGGCAAA  0.0175
97. CGTTAGCA  0.0177
98. TCAATTCA  0.0203
99. AAGTGCCG  0.0227
100. CTCTTAGA  0.0233
101. ATCTTCGA  0.0259
102. AGCTATAT  0.0268
103. GACCACTC  0.0276
104. TAGCTCCA  0.0276
105. GTTGTTAA  0.0289
106. GTGCGATA  0.0295
107. AGTCTCCC  0.0304
108. ACGCCTAT  0.0338
109. ACTATGTA  0.0376
110. ATATACAG  0.039
111. GCCCCTGA  0.0407
112. ATCCTTAC  0.0414
113. AAGTTTCT  0.0439
114. TATGGAGA  0.0442
115. ATAGATGA  0.0506
116. AAAACCGG  0.0517
117. CAATGGAA  0.0554
118. GCTATAAA  0.0588
119. TCGTCACA  0.06
120. GACGAAAA  0.0647
121. GCATCGTA  0.0744
122. GAAATTAC  0.0745
123. AACTCGCT  0.075
124. ACTAAATG  0.0763
125. CTCCATAA  0.0785
126. AGGATCTG  0.0791
127. CAAATTTC  0.0854
128. ACCAAGAC  0.0875
129. ATCTGCAG  0.0894
130. ATTACGAG  0.0949
131. CACAATTC  0.0963
132. AGGTACCT  0.0966
133. GCGTGAAA  0.0969
134. CTTAGCAC  0.0977
135. ACTCCAAT  0.0978
136. GGTTAGTA  0.0982
137. CCATCCCC  0.0989
138. CCGGTCCC  0.0992
139. GCTAAGAA  0.101
140. AAAAAACC  0.105
141. CTCGACAA  0.107
142. AGCGGACG  0.108
143. ATAAGTAA  0.11
144. ACATCATA  0.113
145. CTTTACTA  0.117
146. GGTTTCCA  0.119
147. GTTTTGGA  0.122
148. AACTAAAT  0.123
149. CCTCTTCA  0.124
150. TGGGACCA  0.13
151. AGAAAAAC  0.134
152. GCCTCCTA  0.136
153. CGAATGGC  0.137
154. AGTGGCGG  0.145
155. ACCATACA  0.15
156. TACCAAAA  0.16
157. AGATACGA  0.162
158. CCTGAATC  0.162
159. GAGGCGGC  0.167
160. CCACTTTC  0.176
161. AGTTCGGG  0.187
162. ATAAATAA  0.188
163. AGCATCAT  0.202
164. ATCCGAAA  0.211
165. CTAGCAGC  0.221
166. CCAGATTA  0.233
167. GAGCGCCC  0.234
168. ACTGGTGC  0.269
169. GCAGCTAA  0.329
170. AAAGGAAG  0.361
171. CGGGATCC  0.371
172. CAGGAAGC  0.434

— the supplement of paper PMC3334620
